18 compounds from the supplement of paper PMC6089552 can be followed below.

In this assay the test system is A673/TR/shEF. In words: cell viability (LOESS-normalised, relative to median of negative controls) (log2 ratio); higher = more viable cells (less compound effect), active = hit call of the paper (over 3 MAD below the median). As to conditions: treatment time: 72 h. The procedure, abridged:
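Doxycycline, present or absent from 24 h before compounds, was used to induce EWS-FLI1 shRNA knockdown in A673/TR/shEF Ewing sarcoma cells at 1,500 per well in 384-well plates. Cells then received library compounds at two or more concentrations, or DMSO controls, for three days. Viability was measured by CellTiter-Glo luminescence on an Envision reader, and per-plate LOESS correction, division by the negative-control median and log2 transformation followed.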

The mark [1] stands for this setting: 0.25 µM, library screen: screen1, EWS-FLI1 expression: high (no doxycycline).
The mark [2] stands for this setting: 0.25 µM, library screen: screen1, EWS-FLI1 expression: low (doxycycline-induced shRNA knockdown).
Setting [3] is: 2.5 µM, library screen: screen1, EWS-FLI1 expression: high (no doxycycline).
Where [4] appears, read: 2.5 µM, library screen: screen1, EWS-FLI1 expression: low (doxycycline-induced shRNA knockdown).
Setting [5] is: 0.103 µM, library screen: screen3, EWS-FLI1 expression: high (no doxycycline).
[6] abbreviates: 0.103 µM, library screen: screen3, EWS-FLI1 expression: low (doxycycline-induced shRNA knockdown).
[7] abbreviates: 0.308 µM, library screen: screen3, EWS-FLI1 expression: high (no doxycycline).
The mark [8] stands for this setting: 0.308 µM, library screen: screen3, EWS-FLI1 expression: low (doxycycline-induced shRNA knockdown).
Where [9] appears, read: 0.926 µM, library screen: screen3, EWS-FLI1 expression: high (no doxycycline).
Setting [10] is: 0.926 µM, library screen: screen3, EWS-FLI1 expression: low (doxycycline-induced shRNA knockdown).
[11] abbreviates: 2.8 µM, library screen: screen3, EWS-FLI1 expression: high (no doxycycline).
The mark [12] stands for this setting: 2.8 µM, library screen: screen3, EWS-FLI1 expression: low (doxycycline-induced shRNA knockdown).
[13] abbreviates: 8.3 µM, library screen: screen3, EWS-FLI1 expression: high (no doxycycline).
Setting [14] is: 8.3 µM, library screen: screen3, EWS-FLI1 expression: low (doxycycline-induced shRNA knockdown).
[15] abbreviates: 25 µM, library screen: screen3, EWS-FLI1 expression: high (no doxycycline).
The mark [16] stands for this setting: 25 µM, library screen: screen3, EWS-FLI1 expression: low (doxycycline-induced shRNA knockdown).
Setting [17] is: 0.25 µM, library screen: screen2, EWS-FLI1 expression: high (no doxycycline).
The mark [18] stands for this setting: 0.25 µM, library screen: screen2, EWS-FLI1 expression: low (doxycycline-induced shRNA knockdown).
Setting [19] is: 2.5 µM, library screen: screen2, EWS-FLI1 expression: high (no doxycycline).
Where [20] appears, read: 2.5 µM, library screen: screen2, EWS-FLI1 expression: low (doxycycline-induced shRNA knockdown).

The structures appear in SMILES notation. Screen size: about 3,200 compounds; about 300 (9.4%) showed activity. Only a part is listed here, and it is no random draw.

Regarding `C[C@H]1[C@H](C)CC[C@]2(C(=O)O)CC[C@]3(C)C(=CC[C@@H]4[C@@]5(C)CC[C@H](O)C(C)(C)[C@@H]5CC[C@]43C)[C@H]12`, the “cell viability (log2)” value under setting [1] is inactive: 0.086, the “cell viability (log2)” value under setting [2] was inactive: -0.0788, the “cell viability (log2)” value under setting [3] was inactive: 0.14 and the “cell viability (log2)” value under setting [4] was inactive: -0.02.

As for `NC(=O)Nc1cc(-c2cccc(F)c2)sc1C(=O)N[C@H]1CCCNC1`, the “cell viability (log2)” value runs as follows: under setting [5], inactive: 0.0878; under setting [6], inactive: -0.0161; under setting [7], inactive: 0.0969; under setting [8], inactive: 0.0124; under setting [9], inactive: 0.0104; under setting [10], inactive: 0.0143. In addition, the “cell viability (log2)” value by setting is: under setting [11], inactive: 0.0125; under setting [12], inactive: 0.004; under setting [13], inactive: 0.0348; under setting [14], inactive: 0.0727; under setting [15], inactive: 0.0502; under setting [16], inactive: 0.0243.

For the compound `Oc1ccc2c(c1)OC[C@H]1c3cc4c(cc3O[C@@H]21)OCO4`, the “cell viability (log2)” value runs as follows: under setting [1], inactive: 0.0543; under setting [2], inactive: -0.104; under setting [3], inactive: 0.119; under setting [4], inactive: 0.0894.

In the case of `O=C(c1ccc(F)cc1)C1CCN(CCn2c(=O)[nH]c3ccccc3c2=O)CC1`, the “cell viability (log2)” value is, setting by setting: under setting [17], active: -0.282; under setting [18], active: -0.245; under setting [19], active: -2.12; under setting [20], active: -2.83.

`CCN(CC)C(=O)c1ccc(O)c(OC)c1`: the “cell viability (log2)” value under setting [17] was inactive: 0.169, the “cell viability (log2)” value under setting [18] is inactive: -0.0132, the “cell viability (log2)” value under setting [19] is inactive: 0.114 and the “cell viability (log2)” value under setting [20] was inactive: -0.052.

For the compound `NC1(C(=O)O)CC1`, the “cell viability (log2)” value was inactive: 0.064 under setting [1]; inactive: 0.0956 under setting [2]; active: -0.141 under setting [17]; active: -0.0707 under setting [18]; inactive: 0.122 under setting [3]; inactive: 0.0925 under setting [4]. Further, the “cell viability (log2)” value runs as follows: under setting [19], inactive: 0.123; under setting [20], inactive: 0.0434.

On to `CC(=O)[C@@]1(O)CC[C@H]2[C@@H]3CCC4=CC(=O)CC[C@]4(C)[C@H]3CC[C@@]21C`, for which the “cell viability (log2)” value is, setting by setting: under setting [1], inactive: 0.135; under setting [2], inactive: 0.114; under setting [17], inactive: 0.00581; under setting [18], inactive: 0.114; under setting [3], inactive: 0.103; under setting [4], inactive: -0.0537. Besides, the “cell viability (log2)” value under setting [19] is inactive: 0.141 and the “cell viability (log2)” value under setting [20] is inactive: 0.0883.

In the case of `Nc1nccc(Oc2ccc(NC(=O)c3c[nH]cc(-c4ccc(F)cc4)c3=O)cc2F)c1Cl`, the “cell viability (log2)” value by setting is: under setting [5], inactive: 0.0573; under setting [6], inactive: 0.129; under setting [7], inactive: -0.0185; under setting [8], inactive: 0.0852; under setting [9], inactive: 0.059; under setting [10], inactive: 0.0991. Also, the “cell viability (log2)” value was inactive: 0.111 under setting [11]; inactive: 0.205 under setting [12]; inactive: 0.0158 under setting [13]; inactive: 0.199 under setting [14]; inactive: -0.109 under setting [15]; inactive: 0.174 under setting [16].

As for `CN(C)CCOC(c1ccccc1)c1ccccc1.Cn1c(=O)c2[nH]c(Cl)nc2n(C)c1=O`, the “cell viability (log2)” value under setting [1] is inactive: 0.158, the “cell viability (log2)” value under setting [2] is inactive: 0.107, the “cell viability (log2)” value under setting [3] was inactive: 0.172 and the “cell viability (log2)” value under setting [4] is inactive: 0.13.

In the case of `CSC(=N)N`, the “cell viability (log2)” value under setting [17] was inactive: 0.199, the “cell viability (log2)” value under setting [18] was inactive: 0.177, the “cell viability (log2)” value under setting [19] was inactive: 0.163 and the “cell viability (log2)” value under setting [20] is inactive: 0.129.

For the compound `COc1ccc(OC)c(CN2CCN(Cc3ccc(OC)c(OC)c3OC)CC2)c1`, the “cell viability (log2)” value is, setting by setting: under setting [1], inactive: 0.0155; under setting [2], inactive: 0.0265; under setting [3], inactive: 0.162; under setting [4], inactive: 0.0778.

For the compound `COc1cc2c(cc1OC)[C@@H]1C(=O)c3c(cc4c(c3O)C=CC(C)(C)O4)O[C@@H]1CO2`, the “cell viability (log2)” value is inactive: -0.0181 under setting [1], inactive: -0.000972 under setting [2], active: -0.392 under setting [3] and inactive: -0.0174 under setting [4].

As for `O=C1NCC2(CCN(CCc3ccccc3)CC2)O1`, the “cell viability (log2)” value was inactive: -0.0202 under setting [1]; inactive: 0.0747 under setting [2]; inactive: 0.0181 under setting [17]; inactive: 0.097 under setting [18]; inactive: 0.108 under setting [3]; inactive: 0.0398 under setting [4]. Also, the “cell viability (log2)” value reads like this: under setting [19], inactive: 0.129; under setting [20], inactive: 0.0095.

With `COc1cc(C)c(C(=O)Oc2cc(C)c(C(=O)O)c(O)c2C)c(OC)c1C`, the “cell viability (log2)” value is, setting by setting: under setting [1], inactive: 0.0483; under setting [2], inactive: 0.0178; under setting [3], inactive: 0.131; under setting [4], inactive: 0.00206.

Take `Nc1nc(NCCNc2ncc(-n3ccnc3)c(-c3ccc(Cl)cc3Cl)n2)ccc1[N+](=O)[O-]`: the “cell viability (log2)” value was inactive: 0.0217 under setting [5]; inactive: -0.00304 under setting [6]; inactive: 0.104 under setting [7]; inactive: -0.0076 under setting [8]; inactive: 0.0742 under setting [9]; inactive: -0.0267 under setting [10]. Moreover, the “cell viability (log2)” value is, setting by setting: under setting [11], inactive: 0.0566; under setting [12], inactive: -0.237; under setting [13], inactive: -0.0267; under setting [14], inactive: 0.0274; under setting [15], inactive: 0.00604; under setting [16], inactive: -0.0487.

As for `CC(=O)O[C@@H]1C[C@H]2C(C)(C)C(=O)C=C[C@]2(C)[C@H]2CC[C@@]3(C)[C@H](c4ccoc4)OC(=O)[C@H]4O[C@]43[C@@]21C`, the “cell viability (log2)” value under setting [1] is inactive: 0.164, the “cell viability (log2)” value under setting [2] is inactive: -0.0142, the “cell viability (log2)” value under setting [3] was inactive: 0.196 and the “cell viability (log2)” value under setting [4] was inactive: 0.111.

Turning to `CSCC[C@H](NC=O)C(=O)N[C@@H](Cc1ccccc1)C(=O)O`, the “cell viability (log2)” value by setting is: under setting [1], inactive: 0.0894; under setting [2], inactive: 0.169; under setting [3], inactive: 0.0791; under setting [4], inactive: 0.113.

`Cc1cc2nc3c(=O)[nH]c(=O)nc-3n(C[C@H](O)[C@H](O)[C@H](O)CO)c2cc1C`: the “cell viability (log2)” value under setting [5] is inactive: 0.0621; the “cell viability (log2)” value under setting [6] is inactive: -0.0327; the “cell viability (log2)” value under setting [7] is inactive: -0.0824; the “cell viability (log2)” value under setting [8] is inactive: -0.00521; the “cell viability (log2)” value under setting [9] is inactive: 0.0196; the “cell viability (log2)” value under setting [10] was inactive: 0.0373. In addition, the “cell viability (log2)” value was inactive: -0.0375 under setting [11]; inactive: 0.0522 under setting [12]; inactive: 0.0494 under setting [13]; inactive: 0.121 under setting [14]; inactive: 0.118 under setting [15]; inactive: 0.0177 under setting [16].
